The source holds more than one record for some entries. They are shown here; other results are not. There may be further records. Some entries list several cross-links; each record is another pair of residues.
Target: PRPF8 (UniProt Q6P2Q9)
Assay: cross-linking mass spectrometry
Conditions: DSBSO, in cells or nuclear extract, not told apart

SNW1, sequence (Q13573 whole entry): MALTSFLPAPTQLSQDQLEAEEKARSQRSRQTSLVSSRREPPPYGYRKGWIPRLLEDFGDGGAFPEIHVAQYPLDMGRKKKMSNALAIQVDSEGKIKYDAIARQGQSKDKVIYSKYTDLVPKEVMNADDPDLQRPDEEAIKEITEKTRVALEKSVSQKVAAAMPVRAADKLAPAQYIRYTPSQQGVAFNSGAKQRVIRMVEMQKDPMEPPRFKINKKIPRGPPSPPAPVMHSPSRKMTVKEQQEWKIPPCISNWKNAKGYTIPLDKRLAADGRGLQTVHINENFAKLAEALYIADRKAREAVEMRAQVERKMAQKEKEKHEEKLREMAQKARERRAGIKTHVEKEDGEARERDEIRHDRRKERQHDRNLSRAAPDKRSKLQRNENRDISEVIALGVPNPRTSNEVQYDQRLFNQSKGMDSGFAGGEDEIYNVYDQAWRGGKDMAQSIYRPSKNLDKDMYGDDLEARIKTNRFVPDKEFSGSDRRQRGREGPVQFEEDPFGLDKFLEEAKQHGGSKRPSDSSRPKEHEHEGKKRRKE
PRPF6, sequence (O94906 whole entry): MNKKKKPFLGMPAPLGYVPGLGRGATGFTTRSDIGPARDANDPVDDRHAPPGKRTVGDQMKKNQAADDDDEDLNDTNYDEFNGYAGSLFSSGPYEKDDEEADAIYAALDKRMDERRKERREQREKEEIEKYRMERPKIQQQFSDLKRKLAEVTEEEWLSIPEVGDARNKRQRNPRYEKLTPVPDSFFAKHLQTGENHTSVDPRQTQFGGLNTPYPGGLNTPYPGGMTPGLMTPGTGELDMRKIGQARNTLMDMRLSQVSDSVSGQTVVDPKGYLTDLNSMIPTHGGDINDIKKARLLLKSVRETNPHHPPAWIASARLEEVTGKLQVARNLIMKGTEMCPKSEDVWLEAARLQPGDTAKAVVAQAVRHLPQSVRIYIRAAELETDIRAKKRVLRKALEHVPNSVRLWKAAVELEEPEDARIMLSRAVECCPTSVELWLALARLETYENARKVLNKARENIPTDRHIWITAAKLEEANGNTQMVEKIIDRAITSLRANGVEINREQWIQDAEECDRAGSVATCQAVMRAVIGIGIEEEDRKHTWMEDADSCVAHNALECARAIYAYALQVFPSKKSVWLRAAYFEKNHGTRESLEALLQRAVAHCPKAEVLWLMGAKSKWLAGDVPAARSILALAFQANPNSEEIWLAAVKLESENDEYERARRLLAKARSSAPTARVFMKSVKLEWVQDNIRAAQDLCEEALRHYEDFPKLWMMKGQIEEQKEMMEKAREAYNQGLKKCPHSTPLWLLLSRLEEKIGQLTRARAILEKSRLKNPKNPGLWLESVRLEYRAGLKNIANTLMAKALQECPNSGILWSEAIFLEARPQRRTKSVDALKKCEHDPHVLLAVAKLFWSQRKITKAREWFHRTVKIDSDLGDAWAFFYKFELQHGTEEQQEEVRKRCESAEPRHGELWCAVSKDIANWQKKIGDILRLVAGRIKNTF
SART1, sequence (O43290 whole entry): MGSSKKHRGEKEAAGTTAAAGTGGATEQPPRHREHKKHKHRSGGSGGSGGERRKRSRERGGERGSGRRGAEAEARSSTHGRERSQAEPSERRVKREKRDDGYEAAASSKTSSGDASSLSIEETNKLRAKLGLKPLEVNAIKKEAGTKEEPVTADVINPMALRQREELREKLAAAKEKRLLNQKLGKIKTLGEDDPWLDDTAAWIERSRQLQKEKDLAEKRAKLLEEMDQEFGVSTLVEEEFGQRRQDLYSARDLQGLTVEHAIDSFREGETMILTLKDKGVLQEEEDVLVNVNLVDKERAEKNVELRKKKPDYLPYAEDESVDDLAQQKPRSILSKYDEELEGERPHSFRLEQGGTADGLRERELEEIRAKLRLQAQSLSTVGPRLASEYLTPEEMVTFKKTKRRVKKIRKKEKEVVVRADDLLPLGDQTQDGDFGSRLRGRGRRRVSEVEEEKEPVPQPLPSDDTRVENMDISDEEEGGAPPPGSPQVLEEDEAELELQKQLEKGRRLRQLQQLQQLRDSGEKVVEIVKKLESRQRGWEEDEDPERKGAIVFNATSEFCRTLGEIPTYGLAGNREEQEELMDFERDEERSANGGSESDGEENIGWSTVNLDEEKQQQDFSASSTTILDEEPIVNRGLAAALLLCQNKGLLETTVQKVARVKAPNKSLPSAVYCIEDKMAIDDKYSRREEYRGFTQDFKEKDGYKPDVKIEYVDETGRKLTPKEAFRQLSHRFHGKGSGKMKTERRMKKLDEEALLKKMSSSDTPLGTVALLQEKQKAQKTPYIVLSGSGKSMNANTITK

Substance | cross-linked residues
SNW1, Q13573 | K258 - K727 and K266 - K727
SART1, O43290 | K657 - K1735 and K666 - K1344
PRPF6, O94906 | K137 - K670 and K178 - K727

Source: PMC12350791
